Measurements from the GPR68 mutational scans of Howard et al. (2025).

B1: GPR68, Q15743 (parent)
chain: MGNITADNSSMSCTIDHTIHQTLAPVVYVTVLVVGFPANCLSLYFGYLQIKARNELGVYLCNLTVADLFYICSLPFWLQYVLQHDNWSHGDLSCQVCGILLYENIYISVGFLCCISVDRYLAVAHPFRFHQFRTLKAAVGVSVVIWAKELLTSIYFLMHEEVIEDENQHRVCFEHYPIQAWQRAINYYRFLVGFLFPICLLLASYQGILRAVRRSHGTQKSRKDQIQRLVLSTVVIFLACFLPYHVLLLVRSVWEASCDFAKGVFNAYHFSLLLTSFNCVADPVLYCFVSETTHRDLARLRGACLAFLTCSRTGRAREAYPLGAPEASGKSGAQGEEPELLTKLHPAFQTPNSPGSGGFPTGRLA

What was measured:
[1] = variants of: B1; test: cAMP reporter score (Enrich2 score, wild type = 0); higher = more signal; HEK293T, FACS bins
[2] = variants of: B1; test: surface expression score (Enrich2 score, wild type = 0); higher = more signal; HEK293T, FACS bins

Row | Variant | cAMP reporter score ([1]; pH 5.5) | cAMP reporter score ([1]; pH 6) | cAMP reporter score ([1]; pH 6, modulator: ogerin) | cAMP reporter score ([1]; pH 6.5, modulator: ogerin) | surface expression score [2]
1 | N352Q | 0.617 | -0.658 | 0.111 | -0.076 | 1.29
2 | N352R | 0.009 | -0.863 | 0.144 | -0.646 | 0.107
3 | N352S | 0.179 | 0.138 | 0.514 | 0.515 | 0.465
4 | N352T | 0.196 |  | 0.894 | 0.254 | 0.508
5 | N352W | 0.951 | -0.345 | 0.857 | 0.541 | -0.689
6 | N352Y | 0.362 | 0.089 | 0.318 | 0.071 | -0.027
7 | N352_S353insG | -0.425 | -0.445 | -0.406 | 0.94 | -0.516
8 | N352_S353insGS | 1.1 | 0.24 | 0.983 | 1.27 | 0.94
9 | N352del | 1.18 | 0.519 | 0.585 | 0.27 | 0.173
10 | S353_G355del | 0.288 | -0.758 | 0.288 | 0.332 | -0.088
11 | S353_P354insG | 0.116 | 0.152 | -0.184 | -0.447 | 0.019
12 | P354A | 2.32 |  | 1.3 | 2.77 | 1.05
13 | P354C | 0.057 |  | 0.193 | 0.315 | -0.045
14 | P354D | -0.312 | -0.669 | -0.062 | 0.672 | 0.061
15 | P354E | 1.82 | 1 | 1 | 0.77 | 1.48
16 | P354F | 0.547 | 1.46 | 1.36 |  | 

Row | Variant | cAMP reporter score ([1]; pH 5.5) | cAMP reporter score ([1]; pH 6) | cAMP reporter score ([1]; pH 6, modulator: ogerin) | cAMP reporter score ([1]; pH 6.5, modulator: ogerin) | surface expression score [2]
17 | P354G | 0.226 | -0.528 | 0.264 | -0.351 | 0.011
18 | P354H | 0.56 | 0.032 | 0.564 | 0.073 | 0.364
19 | P354I | 0.402 | 0.863 | 0.343 | 0.512 | -0.628
20 | P354K | 0.983 | -0.615 | 0.888 | 0.436 | 0.285
21 | P354L | 1.27 |  | 1.41 | 1.38 | 1.65
22 | P354M | 1.36 | 0.656 | 1.75 | 1.47 | 0.956
23 | P354N | 0.786 | -0.34 | 0.572 | 0.314 | 0.039
24 | P354Q | 0.479 | 0.22 | 0.354 | 0.682 | 0.675
25 | P354R | 0.794 | -0.498 | 0.52 | -0.811 | 0.463
26 | P354S | 1.75 | 0.153 | 2.62 |  | 
27 | P354T | 1.34 | 1.09 | 2.57 | 2.26 | 1.44
28 | P354V | 0.392 | -0.308 | -0.024 | 0.133 | -0.083
29 | P354W | -0.383 | 0.26 | 0.164 | -0.629 | -0.739
30 | G355_S356insGS | 0.27 | 0.106 | 0.631 | 0.343 | 0.739
31 | S356_G357del | 0.572 | -0.229 | 0.158 | 0.025 | -0.364

The least precise scores are not listed. Two further conditions of the source, in which the scores hardly spread, are not listed. In variant names, del marks residues removed and ins residues inserted between the two positions. For part of these data: The data file names ogerin without a concentration.
